“And” between values parts separate entries of the source, which are not always exact repeats. Identical values can stand only once. Among all 350,000 compounds or so, about 31,000 (8.9%) were called active. The shares of active, inactive and inconclusive entries below differ from those in the screen. Calls come from the whole dose curve; as a rule, active = well fitted inhibition curve with a large enough effect; inconclusive = small, poorly fitted or top-dose-only effect; inactive = no such curve, though single readings can be large or run the other way. A potency beside an inconclusive call is a rough fit, not a confirmed value.
target: Histone-lysine N-methyltransferase EHMT2 (Homo sapiens) (UniProt Q96KQ7); assay: qHTS Assay for Inhibitors of Histone Lysine Methyltransferase G9a; settings: G9a H3K9 monomethylation, AlphaScreen, 2 h; activity, negative = inhibition: at 59 µM (top of the series) unless noted; note: nearly all actives have a fitted effect of over 75% in size
Summary of the method: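 Readings reflect AlphaScreen signal from monomethyl-H3K9 antibody detection. HMT at 20 nM; substrate b-H3K9 500 nM; cofactor SAM 20 uM; 2 h RT reaction; compounds tested as titrations in qHTS with 15 min preincubation.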
% is set by controls: 0 for no effect and ±100 for the full control effect; potency is the fitted concentration of half-maximal effect; tags give direction and shape of the fitted curve.

Chain of UniProt Q96KQ7 (Q96KQ7 whole entry, looked up): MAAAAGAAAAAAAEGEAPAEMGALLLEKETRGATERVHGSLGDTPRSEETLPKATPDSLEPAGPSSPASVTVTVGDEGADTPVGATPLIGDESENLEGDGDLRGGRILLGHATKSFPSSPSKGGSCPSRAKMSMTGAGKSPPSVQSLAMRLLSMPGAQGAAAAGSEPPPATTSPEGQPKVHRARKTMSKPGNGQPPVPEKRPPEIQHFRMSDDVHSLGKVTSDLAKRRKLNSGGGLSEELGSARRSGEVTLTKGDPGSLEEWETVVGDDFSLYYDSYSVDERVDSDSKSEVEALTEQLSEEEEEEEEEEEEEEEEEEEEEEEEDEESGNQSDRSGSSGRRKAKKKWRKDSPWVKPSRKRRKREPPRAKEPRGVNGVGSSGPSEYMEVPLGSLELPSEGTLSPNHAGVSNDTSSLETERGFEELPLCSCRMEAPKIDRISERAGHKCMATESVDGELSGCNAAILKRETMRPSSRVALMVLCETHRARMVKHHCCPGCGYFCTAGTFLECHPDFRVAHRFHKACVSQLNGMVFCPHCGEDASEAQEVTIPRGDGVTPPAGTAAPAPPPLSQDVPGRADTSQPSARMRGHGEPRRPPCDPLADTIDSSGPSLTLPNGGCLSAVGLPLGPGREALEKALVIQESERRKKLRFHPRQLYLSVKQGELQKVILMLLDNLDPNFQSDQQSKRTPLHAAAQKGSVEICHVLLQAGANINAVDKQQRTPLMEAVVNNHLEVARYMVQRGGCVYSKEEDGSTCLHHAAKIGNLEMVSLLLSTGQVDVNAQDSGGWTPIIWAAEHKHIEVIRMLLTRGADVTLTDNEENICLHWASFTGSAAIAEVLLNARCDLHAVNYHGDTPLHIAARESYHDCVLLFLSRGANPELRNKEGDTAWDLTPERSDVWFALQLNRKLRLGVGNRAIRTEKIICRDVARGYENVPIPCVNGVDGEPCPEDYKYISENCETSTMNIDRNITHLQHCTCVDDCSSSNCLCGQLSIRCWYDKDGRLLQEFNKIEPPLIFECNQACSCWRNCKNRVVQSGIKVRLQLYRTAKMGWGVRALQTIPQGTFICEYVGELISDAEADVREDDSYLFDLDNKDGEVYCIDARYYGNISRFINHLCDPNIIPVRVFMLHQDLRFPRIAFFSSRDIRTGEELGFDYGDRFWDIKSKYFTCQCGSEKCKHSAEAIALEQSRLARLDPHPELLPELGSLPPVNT

Row | Structure (SMILES) | Potency | activity, negative = inhibition
1 | COc1ccc(C)cc1NC(=O)NC(C)c1ccc2c(c1)OCO2 (stereo not drawn) | inactive | –
2 | COc1ccc(C(=O)CN2C(=O)C(C)(C)Oc3ccc(C(=O)N4CCCCCC4)cc32)cc1 | inactive | –
3 | Cc1cccc(N2CCN(C(=O)c3cccc(-n4c(C)nc5cccnc54)c3)CC2)c1C | inactive | –
4 | COc1ccc(N=CC2=C(O)c3ccccc3C2=O)c(OC)c1 | – | inconclusive: -63.4% [inhibitor]
5 | COc1ccc(CNC(=O)COC(=O)c2ccccc2C(=O)c2ccccc2)cc1 | inactive | –
6 | N=C1/C(=C\c2coc3ccccc3c2=O)C(=O)N=C2SC(c3ccncc3)=NN12 | – | inconclusive: -72.8% [inhibitor]
7 | COc1cc(OC)c(C(=O)NCc2ccco2)cc1OC | inconclusive: 100 µM [inhibitor, single point] | –
8 | CCOc1ccccc1CNC(=O)C1CCN(c2nn3cc(-c4ccc(F)cc4)nc3s2)CC1 | inactive | –
9 | CCOC(=O)CSc1nc2sc3c(c2c(=O)[nH]1)CCCC3 | inactive | –
10 | CC(C)=CCC/C(C)=C/C=N/NC(=O)c1ccc([N+](=O)[O-])cc1 | inconclusive: 89.1 µM [inhibitor, single point] | –
11 | CCC(Sc1nc(N)c(NC(=O)c2ccc(OC)c(OC)c2)c(=O)[nH]1)C(=O)OC (stereo not drawn) | inconclusive: 89.1 µM [inhibitor, single point] | –
12 | Cc1cccc(N2CCN(C(=O)Nc3cn(CC(C)C)c(=O)c4ccccc34)CC2)c1C | inconclusive: 11.2 µM [inhibitor, partial curve, poor fit] | –
13 | CCOc1ccc(C2C(C(=O)c3ccco3)=C(O)C(=O)N2CCN2CCOCC2)cc1OCC (stereo not drawn) | active: 39.8 µM | –
14 | COc1ccccc1Cc1nc2ccccc2nc1SCC(=O)N(C)c1ccc(F)cc1 | inactive | –
15 | CCOc1ccccc1N(CC(=O)NCCSc1ccccc1)S(=O)(=O)c1ccccc1 | inactive | –
16 | O=c1[nH]cc(N2CCCCCC2)c(=O)[nH]1 | active: 50.1 µM | –
17 | Cc1nn(CC(=O)Nc2ccc3c(c2)OCO3)c(C)c1Cl | active: 70.8 µM | –
18 | O=C(Nc1ccc(N2CCOCC2)cc1)c1cc2c(s1)CCCCC2 | active: 31.6 µM | –
19 | Cc1cc(-c2csc(NC(=O)c3ccc(=O)[nH]c3)n2)c(C)n1Cc1ccccc1 | inconclusive: 44.7 µM [inhibitor, partial curve] | –
20 | CC(C)c1ccc(CN(Cc2ccco2)c2cnc(S(C)(=O)=O)nc2C(=O)Nc2ccc(F)cc2)cc1 | inactive | –
21 | CC(C)c1ccc(S(=O)(=O)N2CCN(C(=O)[C@@H]3CCCN3C(=O)c3cccs3)CC2)cc1 | active: 44.7 µM | –
22 | Cc1cccc(NC(=S)NC(=O)c2ccco2)n1 | inactive | –
23 | COc1ccccc1N1CCN(C(=O)Cn2cnc3onc(-c4ccc(F)cc4)c3c2=O)CC1 | inactive | –
24 | Cc1cc(C)c2nc(NCc3ccccc3O)sc2c1 | inactive | –

Row | Structure (SMILES) | Potency | activity, negative = inhibition
25 | COc1ccc(-c2nc(C#N)c(NCc3ccccc3Cl)o2)cc1OC | – | inconclusive: -116% [inhibitor]
26 | CCOc1ccccc1NC(=O)CNC(=O)c1nn(-c2ccc(OC)c(OC)c2)c(=O)c2ccccc12 | inconclusive: 89.1 µM [inhibitor, single point] | –
27 | Cc1nc(SCC(=O)NCc2ccco2)nc(C)c1C | inconclusive: 89.1 µM [inhibitor, single point] | –
28 | CCN(CC)C(=O)C1CCCN(Cc2ccccc2F)C1 (stereo not drawn) | inconclusive: 10 µM [inhibitor, partial curve, poor fit] | –
29 | Oc1ccc(-c2cn3ccccc3n2)cc1 | inconclusive: 100 µM [inhibitor, partial curve, poor fit] | –
30 | O=C(O)c1ccc(S(=O)(=O)N(Cc2ccc(F)cc2)C2CCCCC2)cc1 | inconclusive: 70.8 µM [inhibitor, partial curve] | –
31 | COCC(C)Nc1ccc(S(=O)(=O)N2CCCC2)cc1[N+](=O)[O-] (stereo not drawn) | inactive | –
32 | Cc1ccc(S(=O)(=O)Nc2cc(-c3ccccc3)nn2C)cc1 | inconclusive: 89.1 µM [inhibitor, single point] | –
33 | Cc1nc(NCCc2ccccc2)c(C#N)c(C)c1[N+](=O)[O-] | inactive | –
34 | O=C(Nc1nc2ccccc2n1CCN1CCOCC1)c1cn(-c2ccccc2)nc1-c1ccccc1 | inconclusive: 44.7 µM [inhibitor, partial curve, poor fit] | –
35 | CCCCNC(=S)N1CCN(C)CC1 | active: 11.2 µM | –
36 | Cc1c(OCC(=O)NC(Cc2ccc(Cl)cc2)C(=O)O)ccc2c(-c3ccccc3)cc(=O)oc12 (stereo not drawn) | – | inactive: -7.37% [at 12.7 µM]
37 | CCCCOC(=O)C1=C(C)Nc2ncnn2C1c1ccc(OC)c(OC)c1OC (stereo not drawn) | inconclusive: 39.8 µM [inhibitor, single point] | –
38 | COc1cc(C2/C(=C(\O)c3ccc4c(c3)CC(C)O4)C(=O)C(=O)N2CC2CCCO2)cc(OC)c1OC (stereo not drawn) | active: 50.1 µM | –
39 | COc1ccc(Cn2c(=O)c3oc4ccccc4c3n(Cc3cccc(C(F)(F)F)c3)c2=O)cc1 | inactive | –
40 | CCOc1cc(/C=N/NC(=O)CN2CCCCC2)ccc1OCc1cccc(Cl)c1 | inactive | –
41 | COc1ccc(NC(=O)c2nc3ccccc3s2)cc1 | inactive | –
42 | O=C1C(=O)N(CCCO)C(c2ccc(Br)cc2)/C1=C(\O)c1ccc(Br)cc1 (stereo not drawn) | inconclusive: 79.4 µM [inhibitor, single point] | –
43 | CC(C)c1cc(NCC2CCCO2)n2c(nc3ccccc32)c1C#N (stereo not drawn) | inactive | –
44 | COc1ccc(N2CCN(C(=O)C3CCN(S(=O)(=O)c4cccs4)CC3)CC2)cc1 | inconclusive: 8.91 µM [inhibitor, partial curve] and inconclusive: 39.8 µM [inhibitor, full curve] | –
45 | Cc1cccc(N2CCN(c3ccc(NC(=O)/C=C(/C(=O)O)c4ccccc4)cc3)CC2)c1 | active: 8.91 µM | –
46 | COc1ccccc1Nc1nc(N)nc(CN2CCCCCC2)n1 | inconclusive: 3.98 µM [inhibitor, single point] | –
47 | Cc1ccc(CN2CCSc3ccc(C(=O)N4CCN(c5ccccc5)CC4)cc32)cc1 | active: 17.8 µM | –
48 | COc1ccc(CN=C2NC(=O)CC(C(=O)Nc3ccccc3C)S2)cc1 (stereo not drawn) | inconclusive: 79.4 µM [inhibitor, single point] | –
